# Measurements: paper PMC12136788
# The other results are listed elsewhere or left out.
# T1: UNK ZnF1-3 (human, UniProt Q9C0B0 31-174)
# T1 sequence: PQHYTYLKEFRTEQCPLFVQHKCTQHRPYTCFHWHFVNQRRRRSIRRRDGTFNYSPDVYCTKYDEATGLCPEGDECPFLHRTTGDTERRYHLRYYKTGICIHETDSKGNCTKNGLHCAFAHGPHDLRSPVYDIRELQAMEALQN
# B1: chr14:78183846:78183847:+_ENSG00000119705_ENST00000557342|hu_hu|hu_hu_hu_mus_False|8_18 (ssRNA)
# RNA: GGGAGUUCUACAGUCCGACGAUCUCUCAGAAAUCUUUCUUCAUCAGAUGUUUGAGCUCCGUGCAAAGCCUUUGCUCUUUGAGCUUGAACGUGGAUCUAUGGGAGGGAAAGCACUGUAUUUUCCUGUUGUAGUGCAUUUAAAGACAACAGAGGAUUGAGCAUCA
# B2: 35858934_35859054_2102_3pUTR_ENSG00000108100_ENST00000265375|human|control|control (ssRNA)
# RNA: GGGAGUUCUACAGUCCGACGAUCAAGGAGAGGAAUGGAUUAGGCAGGGGUACAAAGAAAUGGCUCCUACUCGGUAGUUCCAGGCACAUGCCCAGCACUCUGCAGAACUCUCACAGGGACACCCUCUGCUGCACCGUGUCCUUCCAACAGAGGAUUGAGCAUCA
# B3: chr1:60041781:60041782:+_ENSMUSG00000041040_ENSMUST00000036540|mus_hu|mus_mus_mus_hu_False|58_58 (ssRNA)
# RNA: GGGAGUUCUACAGUCCGACGAUCAAGUUUACAAUAGUAAAGUAAAUGCAGUAGUGGCAAAUUUUCUUUUAUUUUCCUUCCUAAAAGAAAAUCUUUAUAACCCAGUCCUAGUCUUGGACAUAGUGAAAGCUAUAAAUUCUGACUCAACAGAGGAUUGAGCAUCA
# B4: chr4:129011843:129011844:-_ENSMUSG00000057236_ENSMUST00000102598|mus_mus|FALSE|FALSE (ssRNA)
# RNA: GGGAGUUCUACAGUCCGACGAUCGGCAUGGGUCAUCACCAAAUCAUAAAGAAAAGGGGUGUUCUUCUUCCAUAUUUUGUACUCCUCGUUGAUCACCCGUUCUUCCACUGCGUCGUCAAAGGCCGCUUCCUUGUCAGCCAUGGCCAACAGAGGAUUGAGCAUCA
# B5: chr7:109302599:109302600:-_ENSMUSG00000063550_ENSMUST00000070165|mus_hu|motif|central (ssRNA)
# RNA: GGGAGUUCUACAGUCCGACGAUCGGAAUCUUCAUCUCCAUCCUGCUGGUGAUUCUCAUCAACAGGUUUGCUUAGGAAACGGAAUCUCUCUCCAUUUUCUGGAUAUUCAGAUGGUGAAGCUAGAUUUUCUGAAUCACGAUUAACCAACAGAGGAUUGAGCAUCA
# B6: chr11:23187360:23187361:+_ENSMUSG00000020290_ENSMUST00000020538|mus_mus|FALSE|FALSE (ssRNA)
# RNA: GGGAGUUCUACAGUCCGACGAUCGCUCACCCAACCAGAUAUUAACUUUAAAGUUUCCCUUUUUACUGUCCGCAUACUUCUAAUCAAUGGUUGCUUUGUAACCAUCUCACCAUUAGCUUGAAUAGCUGCAGAAAUAUUUUCACUCAACAGAGGAUUGAGCAUCA
# B7: chr3:10015032:10015033:+_ENSMUSG00000027533_ENSMUST00000029046|mus_mus|mus_mus_mus_hu_True|8_58 (ssRNA)
# RNA: GGGAGUUCUACAGUCCGACGAUCGUUUUUACCAUCACAAGUGAUGAUACAAUCUGGCUUGGCCAUUGCGCCCAUUUUCCUAAGAGCUAUUCCCACUCCUAGCUCCUUCAUGUAUUCAUCAAAGCCUUGGCUUUCCACCAGGCGCAACAGAGGAUUGAGCAUCA
# B8: chr3:41266445:41266446:+_ENSG00000168036_ENST00000349496|perfect_dup|motif|central (ssRNA)
# RNA: GGGAGUUCUACAGUCCGACGAUCCAUAGCAGCUCGUACCCUCUGAGCUCGAGUCAUUGCAUACUGUCCAUCAAUAUCAGCGGCUUGUUCUUGAGUGAAGGACUGAGAAAAUCCCUGUUCCCACUCAUACAGGACUUGGGAGGUCAACAGAGGAUUGAGCAUCA
# B9: chr7:140881322:140881323:-_ENSMUSG00000030979_ENSMUST00000135760|mus_mus|FALSE|FALSE (ssRNA)
# RNA: GGGAGUUCUACAGUCCGACGAUCUAAUCUGGUCAAAGCUGCUGCCAGAUAACGCCUGAAUAUACUCGAGGCUGUAUUUAAGGCCGGAGGGACUGAAAAACGUGAUGCUGGCUGGGAUACCCUGAUCUUCAUAGUAGCUCUUCACAACAGAGGAUUGAGCAUCA
# B10: 128445656_128448168_5465_CDS_ENSMUSG00000014355_ENSMUST00000014499|mouse|control|control (ssRNA)
# RNA: GGGAGUUCUACAGUCCGACGAUCGAAAUAUUCAGCAAAUGACAGAAGUGCUGGAUCAGAAGUGAAUGAUGAAAUUGUUUCAGGCUUGAAAGCCCGGGCUUCAGAGUUCCUAUUAGCAACAGUUUGUGCCAACAAACUCUGCCACAACAGAGGAUUGAGCAUCA
# B11: chr4:21803547:21803548:+_ENSMUSG00000028248_ENSMUST00000098238|mus_mus|motif|central (ssRNA)
# RNA: GGGAGUUCUACAGUCCGACGAUCUUCACUUGAAGAGUAAUCUAAAACACUUUAAGGUAUGAAAAUUUUAUACAACUUAUCGGUUACAAAUUAAUCAGAAUUCUUCAAUUAGAUACACUGUGUUAGCUCACCUACAUAAAAAAUCAACAGAGGAUUGAGCAUCA
# B12: chr5:80946147:80946148:-_ENSG00000145687_ENST00000505980|hu_hu|motif|central (ssRNA)
# RNA: GGGAGUUCUACAGUCCGACGAUCUGUUUGAGCUGAUUUCUGAGCUCCUACAUGGAGCAGAUAUUCAUAUACGUAGAGUGCGGACUUCUCCCGGGCCUGGCUGUCGGACGGGACGGCGCUGCUGUUACUCUUGCCUUUGCCGUACAACAGAGGAUUGAGCAUCA
# B13: chr4:17845017:17845018:+_ENSG00000109805_ENST00000514176|hu_mus|hu_hu_hu_mus_False|58_108 (ssRNA)
# RNA: GGGAGUUCUACAGUCCGACGAUCGCUUCCUAACUUAGUAUCUUCAUUAAGGAACUCUGCAAGGUUAAGUUUACUUUUUCUAGUGCUAGCUGUUUUGGCUCGUCUGGGUAAUCUCAUCUUCAUUUCUGAUGGUGGUUCAUGAUCCAACAGAGGAUUGAGCAUCA
# B14: chr2:48026839:48026840:+_ENSG00000116062_ENST00000540021|hu_mus|FALSE|FALSE (ssRNA)
# RNA: GGGAGUUCUACAGUCCGACGAUCAUAGUGAGCCACUAGCGUCCUAAAUCUGGAACAGUGGCGGUCAUCCGAAAACUGGCCGAUGAAAAACUUGCCCAGUGAAGUGUCCACAAAGCAAACACCAUACACACGAGUGUGACCAGACAACAGAGGAUUGAGCAUCA
# B15: chr5:95130247:95130248:+_ENSG00000164292_ENST00000379982|hu_hu|motif|central (ssRNA)
# RNA: GGGAGUUCUACAGUCCGACGAUCGGUUUGUGAGUUUCUGAUAUAAUUAUUUCUCUAUACAUGUGAUAUGAAAGAAAGAAACGGUCAGUCUGUCCUCUAUCCCAGUCCAUUUUCCCUCUAUGUAACAAGUCUUUGACUUACAUCCAACAGAGGAUUGAGCAUCA
# B16: chr3:179287964:179287965:+_ENSG00000136518_ENST00000429709|hu_hu|hu_hu_hu_mus_True|58_78 (ssRNA)
# RNA: GGGAGUUCUACAGUCCGACGAUCCUUGAGUGGUGAGAUGGCCUCCAUGUUCUCCCUCGGAACACGCAGGGCAUUGGUAUCUAUGUAGUAGGUGGGCCCGCCCUGCUUGCCUUUGUCACCAUCAAUCUCCAUCAUUGUACUUCCCAACAGAGGAUUGAGCAUCA
# B17: chr3:150289932:150289933:+_ENSG00000144895_ENST00000460851|hu_hu|hu_hu_hu_mus_False|78_108 (ssRNA)
# RNA: GGGAGUUCUACAGUCCGACGAUCCUUGUAGUUUUUCACAUCCCAUACUUCCAUUUGUCCCCUCAGAUUUCCAAAUCCAGCCAGCACUAAUAUAUGUCCAUGAGGGCUAUAGAAGGCUGCGUUGCGAGGACCAGUCCCAAAGUCCAACAGAGGAUUGAGCAUCA
# B18: 109690576_109690696_4732_CDS_ENSG00000148143_ENST00000277225|human|control|control (ssRNA)
# RNA: GGGAGUUCUACAGUCCGACGAUCAGCAGCCUUCACUUUCAUGCCAGGGUGCUUCUUCCCAUAAUGAGUGAGAAGGCCGUGCAAGUUGUUAUACUCAGAUUGGCAUACCGUGCACUGGUAUGGGGUGGAGGAUAUGGCGGGGUUCAACAGAGGAUUGAGCAUCA
# B19: chrX:147030916:147030917:+_ENSG00000102081_ENST00000218200|hu_mus|FALSE|FALSE (ssRNA)
# RNA: GGGAGUUCUACAGUCCGACGAUCAAUAUUCCUACCUGCCAAGAUAUAAAAAAGGCACAGAUCAUACAACUCUUUUUUUUGCUAAUGAAAAUAACAAAUGUCACAUCACACACAUUUCAGGGUCCACUAAAAUACUGGAAAAGUCAACAGAGGAUUGAGCAUCA
# B20: chr4:115894766:115894767:+_ENSMUSG00000028698_ENSMUST00000030464|mus_hu|mus_mus_mus_hu_True|8_38 (ssRNA)
# RNA: GGGAGUUCUACAGUCCGACGAUCUUCCACACGGAAAUGUACUUCGGGUUUUCCAACGGCCAGUACCAGUCCGGCCAAACUACCCGAACAGGGUCCUGUCCUCCUCUCCUACAGAACACAACAAAAUAACAAAAUACUUUCAAGCAACAGAGGAUUGAGCAUCA
# B21: 11579980_11580100_4645_3pUTR_ENSG00000205269_ENST00000379426|human|control|control (ssRNA)
# RNA: GGGAGUUCUACAGUCCGACGAUCUAGAAGACUGAAGGGUUAUAUAUCGCUCUUACUUUUCAAGAAGAAUAAUUAGCAAAUAGCAGAAAGUCAAUAAAUCAACAUGGCUGAAUGAAUCCAAGGGAAGUAAGUGGGAAUAGAUAACAACAGAGGAUUGAGCAUCA
# B22: 153932629_153932749_3192_ncRNA_ENSMUSG00000028360_ENSMUST00000144677|mouse|control|control (ssRNA)
# RNA: GGGAGUUCUACAGUCCGACGAUCGGUCAGUUCUGGCGACAGUUCAAGCAUUUCCAUAGAAUGACUUAAGAAAUAACAUUUACUCCCCAUCCAAAUUCACUUUCUAAAUUACAGCAUCUAUUUCCAAAUUGCCUUUGUUUGGCCCAACAGAGGAUUGAGCAUCA
# Target: T1, UNK ZnF1-3
# Assay: nsRBNS (natural sequence RNA bind-n-seq); RBNS binding buffer (assumed for nsRBNS): 25 mM Tris pH 7.5, 150 mM KCl, 3 mM MgCl2, 0.01% Triton X-100, 500 ug/ml BSA, 20 U/ml SUPERase-In, 4 C; UNK is unkempt and MSI1 is Musashi-1; names of the RNAs are library labels; protein concentration not given here; high values mean tight binding
row,Binder,binding signal [enrichment R]
1,B1,1.09
2,B2,1.63
3,B3,0.754
4,B4,0.786
5,B5,0.444
6,B6,0.777
7,B7,0.54
8,B8,0.485
9,B9,1.22
10,B10,1.04
11,B11,1.04
12,B12,0.649
13,B13,0.437
14,B14,1.13
15,B15,0.58
16,B16,0.417
17,B17,1.16
18,B18,1.35
19,B19,1.68
20,B20,0.879
21,B21,0.98
22,B22,1.34
